# Variants at the floor of the assay are shown more often than the library holds them.
# B1: tRNA (parent)
# chain: CUCUCGGUAGCCAAGUUGGUUUAAGGCGCAAGACUUUAAUUUAUCACUACGAAAUCUUGAGAUCGGGCGUUCGACUCGCCCCCGGGAGAUUUUUUCCUCGAGCAA
# Variants of: B1
# Experiment: nonsense suppression (GFP-seq) (ratio to wild type); higher = more function; SUP4oc tRNA, yeast GFP reporter sort-seq
# Outline: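 To measure nonsense suppression, tRNA variants from a library carrying ~3% random mutations were integrated into the yeast genome alongside RFP and a GFP ochre reporter under galactose control. Growth took place in raffinose/galactose medium supplemented with 80 mg/L adenine, followed by sorting into GFP/RFP bins and Illumina sequencing of each bin (phred ≥30). For each variant with ≥100 reads and ≥30 cells, the bin median GFP/RFP values were weighted by its estimated cell share per bin and referenced to the unmutated parent tRNA.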
row,Variant,nonsense suppression
1,CUCUCGGUAGCCAAGUUGGUUUAAGGCGCAAGACGUUAAUUUAUCACUACGAAAUCUUGAGAUCGGGCGUUCGACUCGCCCCCGAGAGAUUUUUUCCUCGAGCAA [U35G G85A],≤ 0.026
2,CUCUCGGUAGCCAAGUUGGUUUAAGGCGCAAGACUUUAAUUUAUCACUACGAAGUCUUGAGAUGGGGUGUUCGACUCGCCCCCGGGAGAUUUUUUCCUCGAGCAA [A54G C64G C68U],≤ 0.026
3,CUCUCGGUAGCCAAGUUGGUUUAAGGCGCAAGACUUUAAUUUAUCACUACGAACUCUUGACAUCGGGCGUUCGACUCGCCCCCGGGAGAUUUUUUCCUCGAGCAA [A54C G61C],0.216
4,CUCUCGGUAGCCAAGUUGGUUUAAGGCGCAAGACUUUAAUUUAUCACUACGAACUCUGGAGAUCCGGCUUUCGACUCGCCCCCGGGAGAUUUUUUCCUCGAGCAA [A54C U58G G65C G69U],≤ 0.026
5,CUCUCGGUAGCCAAGUUGGUUUAAGGCGCAAGACUUUAAUUUAUCACUACGAACGCUUGAGAUCGGGCAUUCGACUCGCCCCCGGGAGAUUUUUUCCUCGAGCAA [A54C U55G G69A],≤ 0.026
6,CUCUCGGUAGCCAAGUUGGUUUAAGGCGCAAGACUUUAAUUUAUCACUACGAAGUCUUGAGAUGGGGCGUUCGAGUCGCCCCCGGGAGAUUUUUUCCUCGAGCAA [A54G C64G C75G],≤ 0.026
7,CUCUCGGUAGCCAAGUUGGUUUAAGGCGCAAGACGUUAAUUUAUCACUACGAAAUCUUGAGAUCGGGCGUUCGACUCUCCCCCGGGAGAUUUUUUCCUCGAGCAA [U35G G78U],≤ 0.026
8,CUCUCGGUAGCCAAGUUGGUUUAAGGCGCAAGACGUUAAUUUAUCACUACGAAAUCUUGAGAUCGGGCGUUCGACUCCCCCCCGGGAGAUUUUUUCCUCGAGCAA [U35G G78C],≤ 0.026
9,CUCUCGGUAGCCAAGUUGGUUUAAGGCGCAAGACUUUAAUUUAUCACUACGAACUCUUGAGAUCGGGCGUUCGACUCGACCCCGGGAGAUUUUUUCCUCGAGCAA [A54C C79A],≤ 0.026
10,CUCUCGGUAGCCAAGUUGGUUUAAGGCGCAAGACUUUAAUUUAUCACUACGAACUCUUGAGAUCGGGCAUUCGACUCGCCCCCGGGAGAUUUUUUCCUCGAGCAA [A54C G69A],≤ 0.026
11,CUCUCGGUAGCCAAGUUGGUUUAAGGCGCAAGACGUUAAUUUAUCACUACGAAAUCUUGAGAUCGGGCGUUCGACUCGCCCCCGGUAGAUUUUUUCCUCGAGCAA [U35G G86U],≤ 0.026
12,CUCUCGGUAGCCAAGUUGGUUUAAGGCGCAAGACGUUAAUUUAUCACUACGAAAUCUUGAGAUCGGGCGUUCGACUCGCCCCCGGAAGAUUUUUUCCUCGAGCAA [U35G G86A],≤ 0.026
13,CUCUCGGUAGCCAAGUUGGUUUAAGGCGCAAGACUUUAAUUUAUCACUACGAAGUCUUGAGCUCGGUCGUUCGACUAGCCCCCGGGAGAUUUUUUCCUCGAGCAA [A54G A62C G67U C77A],≤ 0.026
14,CUCUCGGUAGCCAAGUUGGUUUAAGGCGCAAGACUUUAAUUUAUCACUACGAACUCCUAAGAUCGGGCGUUCUACUCGCCCCCGGGAGAUUUUUUCCUCGAGCAA [A54C U57C G59A G73U],≤ 0.026
15,CUCUCGGUAGCCAAGUUGGUUUAAGGCGCAAGACUUUAAUUUAUCACUACGAAGUCUUGAGAUCGGGCGUUCGACUCGCCCCCGGGUGAUUUUUUCCUCGAGCAA [A54G A87U],≤ 0.026
16,CUCUCGGUAGCCAAGUUGGUUUAAGGCGCAAGACUUUAAUUUAUCACUACGAACUCUUGAGAUCGGGCGUUCGAGUCCCCCCCGGGAGAUUUUUUCCUCGAGCAA [A54C C75G G78C],≤ 0.026
17,CUCUCGGUAGCCAAGUUGGUUUAAGGCGCAAGACUUUAAUUUAUCACUACGAAGUUAUGAGACCGGGCCUUCGACUCGCCCCCGGGAGAUUUUUUCCUCGAGCAA [A54G C56U U57A U63C G69C],≤ 0.026
18,CUCUCGGUAGCCAAGUUGGUUUAAGGCGCAAGACUUUAAUUUAUCACUACGAACUCUUGAGAUCGGGCGUUCGACUCACCCCCGGGAGAUUUUUUCCUCGAGCAA [A54C G78A],0.107
19,CUCUCGGUAGCCAAGUUGGUUUAAGGCGCAAGACUUUAAUUUAUCACUACGAACUCUUGAGAUCGGGCGUACAACUGGCCCCCGGCAGAUUUUUUCCUCGAGCAA [A54C U71A G73A C77G G86C],≤ 0.026
20,CUCUCGGUAGCCAAGUUGGUUUAAGGCGCAAGACGUUAAUUUAUCACUACGAAAUCUUGAGAUCCGGCGUUCGACUCGCCCCCGGGAGAUUUUUUCCUCGAGCAA [U35G G65C],≤ 0.026
21,CUCUCGGUAGCCAAGUUGGUUUAAGGCGCAAGACGUUAAUUUAUCACUACGAAAUCUUGAGAUCGAGCGUACGACUCGCCCCCGGGAGAUUUUUUCCUCGAGCAA [U35G G66A U71A],≤ 0.026
22,CUCUCGGUAGCCAAGUUGGUUUAAGGCGCAAGACGUUAAUUUAUCACUACGAAAUCUUGAGAUCGGGCGUGCGACUCGCCCCCGGAAGAUUUUUUCCUCGAGCAA [U35G U71G G86A],≤ 0.026
23,CUCUCGGUAGCCAAGUUGGUUUAAGGCGCAAGACUUUAAUUUAUCACUACGAACUCUUGAGAACGGGCGUCCGACUCGCCCCCGGGAGAUUUUUUCCUCGAGCAA [A54C U63A U71C],≤ 0.026
24,CUCUCGGUAGCCAAGUUGGUUUAAGGCGCAAGACUUUAAUUUAUCACUACGAACGCUAGAGAUCGGGCGUUCGACUCGCCCCCGGGAGAUUUUUUCCUCGAGCAA [A54C U55G U58A],≤ 0.026
25,CUCUCGGUAGCCAAGUUGGUUUAAGGCGCAAGACUUUAAUUUAUCACUACGAACUCCUGAGAUCGCGCGUUCGACUCGCCCCCGGGAGAUUUUUUCCUCGAGCAA [A54C U57C G66C],≤ 0.026
26,CUCUCGGUAGCCAAGUUGGUUUAAGGCGCAAGACUUUAAUUUAUCACUACGAACUCUUGAGCUCGGGCGUUCGACUCGCCCCCGGGAGAUUUUUUCCUCGAGCAA [A54C A62C],≤ 0.026
27,CUCUCGGUAGCCAAGUUGGUUUAAGGCGCAAGACGUUAAUUUAUCACUACGAAAUCUUGAGAUCGGGCGUUCGACACGCCCCCGGGAGAUUUUUUCCUCGAGCAA [U35G U76A],≤ 0.026

# — the RNAGym collection of RNA variant scans (doi:10.1101/gad.245936.114)
